In patent US6528630B1 (priority 1997, dated 2003):

Biological target: human neuronal calcium channel α1D, α2 and β1 subunits (Homo sapiens, UniProt Q01668)
Format: cell-based
Parameters: expressed in transfected cells; host or cells: Xenopus laevis oocytes injected with in vitro transcripts

| SMILES | effect on current activation | effect on magnitude of inward barium currents | effect on tail currents | block of inward barium current |
| --- | --- | --- | --- | --- |
| COC(=O)C1=C(C)NC(C)=C([N+](=O)[O-])C1c1ccccc1C(F)(F)F (stereo not shown) [Bay K 8644] | induced a hyperpolarizing shift in current activation | increased the magnitude of the currents | prolonged the tail currents |  |
| [Cd] [cadmium] |  |  |  | blocked completely |
